# This is one part of the list. These are noisy estimates, calculated here from bound and input reads.
# Molecular target: T1, Pho4 (S. cerevisiae) (UniProt P07270)
# T1 sequence: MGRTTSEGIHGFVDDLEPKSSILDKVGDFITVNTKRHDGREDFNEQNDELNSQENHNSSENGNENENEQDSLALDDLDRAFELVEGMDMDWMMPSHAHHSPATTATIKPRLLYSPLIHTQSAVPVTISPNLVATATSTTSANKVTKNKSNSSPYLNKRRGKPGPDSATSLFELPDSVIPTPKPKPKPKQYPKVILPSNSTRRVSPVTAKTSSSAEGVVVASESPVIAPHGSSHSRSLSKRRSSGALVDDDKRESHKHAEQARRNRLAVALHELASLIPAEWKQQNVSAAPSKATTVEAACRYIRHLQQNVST
# Test: relative binding free energy (BET-seq); higher = weaker binding
# Conditions: reference: library average
row,Sequence,relative binding free energy
1,AAATTCACGTGGTTAA,0.17 kcal/mol
2,GGAAGCACGTGAGCGG,0.12 kcal/mol
3,GGGACCACGTGGATGT,0.05 kcal/mol
4,ATTAGCACGTGTGGAT,0.11 kcal/mol
5,GGGGACACGTGCTGGA,0.03 kcal/mol
6,GGTGTCACGTGAGGAA,0.24 kcal/mol
7,ATGACCACGTGGTGGG,-0.21 kcal/mol
8,ACTAGCACGTGAGTGG,0.1 kcal/mol
9,AGTTGCACGTGGGATT,-0.02 kcal/mol
10,GAATGCACGTGTAGAG,0.21 kcal/mol
11,GGAGCCACGTGTTGTT,-0.09 kcal/mol
12,AGAAGCACGTGAGGTA,0.13 kcal/mol
13,TGGATCACGTGTATGT,0.22 kcal/mol
14,TTGATCACGTGAGAAT,0.33 kcal/mol
15,CTGAGCACGTGTCGGG,-0.18 kcal/mol
16,AATGACACGTGGGGGT,-0.11 kcal/mol
17,TGATTCACGTGGAATG,0.38 kcal/mol
18,TTACTCACGTGATGTT,0.42 kcal/mol
19,TGCTGCACGTGGTTAG,-0.18 kcal/mol
20,GGCACCACGTGTGTGG,-0.03 kcal/mol
21,GGGTGCACGTGTTTAG,0 kcal/mol
22,CGTTTCACGTGGGATT,0.25 kcal/mol
23,TTTGCCACGTGGAAGG,-0.16 kcal/mol
24,GTCATCACGTGTAGGC,0.24 kcal/mol
25,TTGTGCACGTGCTGAG,-0.03 kcal/mol
26,TGTGACACGTGTGCGG,0.03 kcal/mol

row,Sequence,relative binding free energy
1,ATGTTCACGTGGTCTA,0.12 kcal/mol
2,GGCGACACGTGATGTG,0.26 kcal/mol
3,TCGAGCACGTGTGGAT,0.02 kcal/mol
4,TGTCTCACGTGCGTAT,0.1 kcal/mol
5,TTGGGCACGTGCTCAG,-0.21 kcal/mol
6,GCGTTCACGTGTTATG,0.22 kcal/mol
7,CGTTGCACGTGGAGTA,-0.03 kcal/mol
8,GTGAACACGTGTTGGT,0.04 kcal/mol
9,GGGAGCACGTGTGTTA,-0.1 kcal/mol
10,TTCGTCACGTGATAAG,0.24 kcal/mol
11,AGCGGCACGTGTTTGA,-0.1 kcal/mol
12,TTGGTCACGTGGGATA,0.08 kcal/mol
13,TTTTGCACGTGAGGTG,0.32 kcal/mol
14,AAGGGCACGTGTGTCG,-0.25 kcal/mol
15,ATTTTCACGTGGGGTG,0.17 kcal/mol
16,TGTTACACGTGATAAA,0.2 kcal/mol
17,GGGTACACGTGGAAAG,0.2 kcal/mol
18,ACTCGCACGTGTGGGT,-0.05 kcal/mol
19,ATATACACGTGGTCTG,-0.05 kcal/mol
20,TTGAACACGTGAGTTA,0.3 kcal/mol
21,GCTTTCACGTGGTGTA,0.24 kcal/mol
22,ATGTACACGTGGATCT,0.08 kcal/mol
23,TTGAGCACGTGAGAAT,0.18 kcal/mol
24,GGTGTCACGTGGGAAG,0.03 kcal/mol
25,GGTTGCACGTGTAGCA,0.15 kcal/mol
26,AAGTGCACGTGCAGGT,0.08 kcal/mol

row,Sequence,relative binding free energy
1,GGGATCACGTGTGGTA,0.2 kcal/mol
2,GTGGCCACGTGAGGGG,0.06 kcal/mol
3,GGTAACACGTGGGTTC,-0.02 kcal/mol
4,GCGTTCACGTGAGGAG,0.41 kcal/mol
5,AGTAGCACGTGATGAT,0.11 kcal/mol
6,TTCAACACGTGTAGTT,0.14 kcal/mol
7,ATATTCACGTGTTATA,0.09 kcal/mol
8,TTTTACACGTGGGTGA,0.06 kcal/mol
9,GTAAGCACGTGAGTGT,0.07 kcal/mol
10,GGTTACACGTGCTGAA,0.23 kcal/mol
11,GTCGTCACGTGTCAGT,0.24 kcal/mol
12,TGTGTCACGTGTCGTC,0.03 kcal/mol
13,ATTGCCACGTGGAGTT,-0.05 kcal/mol
14,AGGGTCACGTGTTTAG,0.12 kcal/mol
15,GATGGCACGTGGTGTG,-0.17 kcal/mol
16,GGGTGCACGTGATTAA,0.2 kcal/mol
17,GTGTACACGTGAATAT,0.4 kcal/mol
18,GGTCTCACGTGATTGG,0.4 kcal/mol
19,TCTTGCACGTGAGGTC,0.24 kcal/mol
20,GGTCGCACGTGTTGGA,-0.03 kcal/mol
21,TCTTGCACGTGTGTTT,0.18 kcal/mol
22,GGATGCACGTGGAGTA,-0.13 kcal/mol
23,GGTAACACGTGTTGCG,-0.03 kcal/mol
24,TTTGACACGTGCGGTT,-0.08 kcal/mol
25,TATTCCACGTGTTAAT,0.12 kcal/mol
26,GTGGTCACGTGAGGGC,0.31 kcal/mol

row,Sequence,relative binding free energy
1,AGGTGCACGTGGTTTA,-0.05 kcal/mol
2,TTAGGCACGTGGTAAG,0 kcal/mol
3,CGGTGCACGTGTGGGT,0.06 kcal/mol
4,TGCAACACGTGGTGTG,-0.05 kcal/mol
5,TGAGTCACGTGTAACT,0.21 kcal/mol
6,GTTACCACGTGGTTAG,-0.08 kcal/mol
7,AAGTGCACGTGGGATG,-0.13 kcal/mol
8,AGTAGCACGTGTCTTG,-0.06 kcal/mol
9,AAAGTCACGTGGGGTG,0.01 kcal/mol
10,TTCGCCACGTGTTGAG,0.05 kcal/mol
11,AGCGGCACGTGCGGGA,-0.15 kcal/mol
12,GTAGGCACGTGAGAAG,0.01 kcal/mol
13,TTGTCCACGTGGGTTC,0.06 kcal/mol
14,TTCGTCACGTGTTTGC,0 kcal/mol
15,GTTATCACGTGCGATG,0.18 kcal/mol
16,ACGCGCACGTGGGGAG,-0.31 kcal/mol
17,TTCGTCACGTGACGGT,0.13 kcal/mol
18,AAGGGCACGTGTGTAC,-0.17 kcal/mol
19,GGGCTCACGTGGTGTT,0.27 kcal/mol
20,ACGTACACGTGGGAGG,-0.21 kcal/mol
21,CGATTCACGTGAAGGT,0.45 kcal/mol
22,TGTCACACGTGGGGCT,-0.28 kcal/mol
23,CTCTGCACGTGTTTTG,0 kcal/mol
24,ATGTCCACGTGGGGGG,-0.25 kcal/mol
25,AGGGACACGTGCTATT,0.05 kcal/mol
26,GTATTCACGTGTTTTT,0.28 kcal/mol

row,Sequence,relative binding free energy
1,ATTAGCACGTGGATGA,0 kcal/mol
2,TGTCCCACGTGGGGTT,-0.3 kcal/mol
3,TTTGGCACGTGCTCGT,-0.21 kcal/mol
4,TCTATCACGTGTGTTT,0.14 kcal/mol
5,GATGGCACGTGGTAGT,-0.11 kcal/mol
6,AATGTCACGTGTTTTT,0.18 kcal/mol
7,TCTTGCACGTGTAATG,0.13 kcal/mol
8,AGGCGCACGTGAGGTT,0.11 kcal/mol
9,GAGGTCACGTGTGCGC,0.12 kcal/mol
10,CTGAACACGTGGGGTT,-0.14 kcal/mol
11,ACGGGCACGTGGATGA,-0.13 kcal/mol
12,CTGTGCACGTGAGGTT,0.03 kcal/mol
13,GCGATCACGTGGTTGA,0.26 kcal/mol
14,AGATCCACGTGTGGCG,0.16 kcal/mol
15,GGATGCACGTGGCATT,-0.03 kcal/mol
16,TTGTGCACGTGAGAAC,0.37 kcal/mol
17,TTACGCACGTGGATGG,-0.12 kcal/mol
18,GTAGACACGTGTGTAA,0.02 kcal/mol
19,TGTTACACGTGATCTA,0.19 kcal/mol
20,ATAGGCACGTGTAATA,0.15 kcal/mol
21,TTTGTCACGTGGATTT,0.15 kcal/mol
22,TGAGGCACGTGAATGG,0.04 kcal/mol
23,GTGATCACGTGGGTGG,0.09 kcal/mol
24,GGTCACACGTGGGTAG,-0.05 kcal/mol
25,GTGTCCACGTGATGGA,0.27 kcal/mol
26,GGTTTCACGTGTTACA,0.18 kcal/mol

row,Sequence,relative binding free energy
1,TTGCCCACGTGAGGTG,0.14 kcal/mol
2,AATATCACGTGGGGCA,-0.02 kcal/mol
3,GGGCGCACGTGGGGGG,-0.11 kcal/mol
4,AGTTGCACGTGGGCAG,-0.09 kcal/mol
5,GAGACCACGTGTTGGG,0 kcal/mol
6,GAGTGCACGTGAAGTT,0.37 kcal/mol
7,GTTCCCACGTGGGTTG,-0.18 kcal/mol
8,CTTGCCACGTGTGTTG,-0.16 kcal/mol
9,GAAATCACGTGTTGTT,0.08 kcal/mol
10,TTTTCCACGTGCGGGG,0.07 kcal/mol
11,CGGTTCACGTGTCAGT,0.28 kcal/mol
12,GAGTTCACGTGAAGGG,0.39 kcal/mol
13,GTTTACACGTGCGTGC,0.1 kcal/mol
14,TGAAACACGTGTAAGG,0.1 kcal/mol
15,TATTGCACGTGGTTGT,-0.07 kcal/mol
16,TATGGCACGTGGGAGC,-0.26 kcal/mol
17,TGTAACACGTGCAGTT,0.07 kcal/mol
18,TTAGACACGTGTCTGT,0.03 kcal/mol
19,ATGGGCACGTGCGGGA,-0.2 kcal/mol
20,GGTCTCACGTGGATAG,0.34 kcal/mol
21,ATTCGCACGTGGGAAT,-0.11 kcal/mol
22,AATTGCACGTGGTCAG,0.03 kcal/mol
23,GTGACCACGTGAGGGG,0.15 kcal/mol
24,TGTTGCACGTGTCAGG,0.03 kcal/mol
25,AGTGACACGTGAGTGC,0.17 kcal/mol
26,TTATTCACGTGCGGAA,0.18 kcal/mol

row,Sequence,relative binding free energy
1,GGGTCCACGTGACTTG,0.25 kcal/mol
2,CGGTCCACGTGGTGGA,-0.15 kcal/mol
3,GGCGTCACGTGATTTT,0.25 kcal/mol
4,GTTGCCACGTGGGGCT,-0.26 kcal/mol
5,TTTTTCACGTGGTGGA,0.27 kcal/mol
6,GTGAGCACGTGGTTGC,-0.05 kcal/mol
7,TAGGACACGTGGGCTG,-0.04 kcal/mol
8,AGAGGCACGTGGATAG,-0.17 kcal/mol
9,TAATTCACGTGTCATT,0.07 kcal/mol
10,AAAGGCACGTGGATGG,-0.27 kcal/mol
11,AGTATCACGTGGTGTT,0.06 kcal/mol
12,AGGTTCACGTGGCGAA,0.15 kcal/mol
13,TACAGCACGTGTTTTG,0 kcal/mol
14,TATGGCACGTGATGGC,-0.03 kcal/mol
15,ATTGTCACGTGTTTAG,0.07 kcal/mol
16,CTTTACACGTGAATGT,0.29 kcal/mol
17,TCTTGCACGTGGGAGT,-0.09 kcal/mol
18,TCGGTCACGTGGTCGG,0.01 kcal/mol
19,CAGTACACGTGGAGTT,0.14 kcal/mol
20,TCTTACACGTGGGTGG,-0.04 kcal/mol
21,AGGTGCACGTGGGCTC,-0.13 kcal/mol
22,CCAGTCACGTGTGGGG,0.16 kcal/mol
23,GTGGGCACGTGGAGGC,0.03 kcal/mol
24,TTACGCACGTGGCGGG,-0.29 kcal/mol
25,TGTTACACGTGTGTCA,0.09 kcal/mol
26,CCGTGCACGTGGGGTG,-0.25 kcal/mol

row,Sequence,relative binding free energy
1,TCTGGCACGTGTGCTA,-0.02 kcal/mol
2,GGTAGCACGTGAGGAC,0.22 kcal/mol
3,GTGTACACGTGGAGTT,0.2 kcal/mol
4,TAAGGCACGTGGTAAT,-0.2 kcal/mol
5,CAGGGCACGTGGGAGA,-0.12 kcal/mol
6,AGGTTCACGTGTGGTA,0.32 kcal/mol
7,CATCGCACGTGGTGGG,-0.13 kcal/mol
8,GTGTACACGTGTTTCT,0.04 kcal/mol
9,AATTGCACGTGGGCGA,-0.03 kcal/mol
10,AGGTGCACGTGTGCGT,-0.13 kcal/mol
11,GTAATCACGTGGAAGG,0.22 kcal/mol
12,TTGTTCACGTGTACTG,0.35 kcal/mol
13,TTATGCACGTGTACTT,-0.15 kcal/mol
14,GTTCACACGTGGGGTA,0.01 kcal/mol
15,AGATTCACGTGTTGGC,0.34 kcal/mol
16,GCGGGCACGTGGAGTC,-0.01 kcal/mol
17,AATTTCACGTGCGTCG,0.28 kcal/mol
18,TCGGGCACGTGTTTAA,-0.04 kcal/mol
19,TTGGCCACGTGGTGAT,-0.19 kcal/mol
20,AGAGGCACGTGTAGTC,0 kcal/mol
21,AGGTGCACGTGGATAA,-0.01 kcal/mol
22,TATTGCACGTGGAGTC,-0.1 kcal/mol
23,ATAGGCACGTGCGTGT,-0.24 kcal/mol
24,GTCATCACGTGCTGTT,0.2 kcal/mol
25,TAGGCCACGTGGGGTA,-0.3 kcal/mol
26,TGCTCCACGTGGTTGT,-0.09 kcal/mol

row,Sequence,relative binding free energy
1,GGCTACACGTGTGTAT,0.36 kcal/mol
2,AAGGACACGTGTGGTA,-0.02 kcal/mol
3,AGATACACGTGAAGGT,0.3 kcal/mol
4,TGGTGCACGTGATAAA,0.16 kcal/mol
5,TTCGTCACGTGGAGTA,0.05 kcal/mol
6,GTAGTCACGTGTTTGA,0.05 kcal/mol
7,CCAGGCACGTGGTGTG,-0.27 kcal/mol
8,CTGCGCACGTGTGTTG,0 kcal/mol
9,TACGGCACGTGTTGTC,0.01 kcal/mol
10,GTGCGCACGTGATGTA,-0.02 kcal/mol
11,TAGAACACGTGGTCGT,-0.08 kcal/mol
12,TGTTTCACGTGGATAC,0.17 kcal/mol
13,AGGGGCACGTGGGGAA,-0.18 kcal/mol
14,ATTATCACGTGGGACT,0.09 kcal/mol
15,TAGCGCACGTGGGGGA,-0.2 kcal/mol
16,GGCTTCACGTGGGGGA,0.23 kcal/mol
17,TGTGGCACGTGTTTTT,-0.01 kcal/mol
18,CATTTCACGTGGAGTA,0.34 kcal/mol
19,AGAGTCACGTGGCGGC,0.04 kcal/mol
20,GGCTGCACGTGTATTG,0.01 kcal/mol
21,GGGTACACGTGACGGA,0.26 kcal/mol
22,GGGGACACGTGATTGT,0.14 kcal/mol

# Source: the BET-seq Pho4 binding data (Le et al. 2018)
